# Assay results taken from the supplement of paper PMC8728848.
# The list shows a part of the results.
# Key:
# Test in all cases: glycan array binding signal (z-score within array); higher = stronger binding
# Conditions in all cases: glycan notation: IUPAC condensed, linker removed
# [1] = target: GlcNAc(b1-3)Gal(b1-4)GlcNAc(b1-3)Gal(b1-4)GlcNAc(b1-2)Man(a1-3)[GlcNAc(b1-3)Gal(b1-4)GlcNAc(b1-3)Gal(b1-4)GlcNAc(b1-2)Man(a1-6)]Man(b1-4)GlcNAc(b1-4)GlcNAc
# Summary of the method: (§1)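 Negative Z-scores can be read as non-binding. The Z-score is calculated within each array and then averaged across arrays of one protein sequence at different concentrations or buffers and across linkers. Arrays, 3228 in all, were curated from the Consortium for Functional Glycomics database and kept only where the protein sequence was available.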
# [2] = target: GlcNAc(b1-3)Gal(b1-4)GlcNAc(b1-3)Gal(b1-4)GlcNAc(b1-2)Man(a1-3)[GlcNAc(b1-3)Gal(b1-4)GlcNAc(b1-3)Gal(b1-4)GlcNAc(b1-2)Man(a1-6)]Man(b1-4)GlcNAc(b1-4)[Fuc(a1-6)]GlcNAc
# Summary of the method: as §1
# [3] = target: GlcNAc(b1-3)Gal(b1-4)GlcNAc(b1-3)Gal(b1-4)GlcNAc(b1-2)[GlcNAc(b1-3)Gal(b1-4)GlcNAc(b1-3)Gal(b1-4)GlcNAc(b1-6)]Man(a1-6)[GlcNAc(b1-3)Gal(b1-4)GlcNAc(b1-3)Gal(b1-4)GlcNAc(b1-2)Man(a1-3)]Man(b1-4)GlcNAc(b1-4)[Fuc(a1-6)]GlcNAc
# Summary of the method: as §1
# [4] = target: GlcNAc(b1-3)Gal(b1-4)GlcNAc(b1-3)Gal(b1-4)GlcNAc(b1-3)Gal(b1-4)GlcNAc(b1-2)Man(a1-3)[GlcNAc(b1-3)Gal(b1-4)GlcNAc(b1-3)Gal(b1-4)GlcNAc(b1-3)Gal(b1-4)GlcNAc(b1-2)Man(a1-6)]Man(b1-4)GlcNAc(b1-4)GlcNAc
# Summary of the method: as §1
# [5] = target: GlcNAc(b1-3)Gal(b1-4)GlcNAc(b1-3)Gal(b1-4)GlcNAc(b1-3)Gal(b1-4)GlcNAc(b1-2)Man(a1-3)[GlcNAc(b1-3)Gal(b1-4)GlcNAc(b1-3)Gal(b1-4)GlcNAc(b1-3)Gal(b1-4)GlcNAc(b1-2)Man(a1-6)]Man(b1-4)GlcNAc(b1-4)[Fuc(a1-6)]GlcNAc
# Summary of the method: as §1
# [6] = target: GlcNAc(b1-3)Gal(b1-4)GlcNAc(b1-3)Gal(b1-4)GlcNAc(b1-3)Gal(b1-4)GlcNAc(b1-2)[GlcNAc(b1-3)Gal(b1-4)GlcNAc(b1-3)Gal(b1-4)GlcNAc(b1-3)Gal(b1-4)GlcNAc(b1-6)]Man(a1-6)[GlcNAc(b1-3)Gal(b1-4)GlcNAc(b1-3)Gal(b1-4)GlcNAc(b1-3)Gal(b1-4)GlcNAc(b1-2)Man(a1-3)]Man(b1-4)GlcNAc(b1-4)[Fuc(a1-6)]GlcNAc
# Summary of the method: as §1
# [7] = target: GlcNAc(b1-3)Gal(b1-4)GlcNAc(b1-3)Gal(b1-4)GlcNAc(b1-3)Gal(b1-4)GlcNAc(b1-3)Gal(b1-4)GlcNAc(b1-2)Man(a1-3)[GlcNAc(b1-3)Gal(b1-4)GlcNAc(b1-3)Gal(b1-4)GlcNAc(b1-3)Gal(b1-4)GlcNAc(b1-3)Gal(b1-4)GlcNAc(b1-2)Man(a1-6)]Man(b1-4)GlcNAc(b1-4)GlcNAc
# Summary of the method: as §1
# [8] = target: GlcNAc(b1-3)Gal(b1-4)GlcNAc(b1-3)Gal(b1-4)GlcNAc(b1-3)Gal(b1-4)GlcNAc(b1-3)Gal(b1-4)GlcNAc(b1-2)Man(a1-3)[GlcNAc(b1-3)Gal(b1-4)GlcNAc(b1-3)Gal(b1-4)GlcNAc(b1-3)Gal(b1-4)GlcNAc(b1-3)Gal(b1-4)GlcNAc(b1-2)Man(a1-6)]Man(b1-4)GlcNAc(b1-4)[Fuc(a1-6)]GlcNAc
# Summary of the method: as §1
# [9] = target: GlcNAc(b1-3)Gal(b1-4)GlcNAc(b1-3)Gal(b1-4)GlcNAc(b1-3)Gal(b1-4)GlcNAc(b1-3)Gal(b1-4)GlcNAc(b1-2)[GlcNAc(b1-3)Gal(b1-4)GlcNAc(b1-3)Gal(b1-4)GlcNAc(b1-3)Gal(b1-4)GlcNAc(b1-3)Gal(b1-4)GlcNAc(b1-6)]Man(a1-6)[GlcNAc(b1-3)Gal(b1-4)GlcNAc(b1-3)Gal(b1-4)GlcNAc(b1-3)Gal(b1-4)GlcNAc(b1-3)Gal(b1-4)GlcNAc(b1-2)Man(a1-3)]Man(b1-4)GlcNAc(b1-4)[Fuc(a1-6)]GlcNAc
# Summary of the method: as §1
# [10] = target: GlcNAc(b1-3)Gal(b1-4)GlcNAc(b1-3)Gal(b1-4)GlcNAc(b1-3)GalNAc
# Summary of the method: as §1
# [11] = target: GlcNAc(b1-3)Gal(b1-4)GlcNAc(b1-3)GalNAc
# Summary of the method: as §1
# [12] = target: GlcNAc(b1-3)Gal(b1-4)GlcNAc(b1-3)[GlcNAc(b1-3)Gal(b1-4)GlcNAc(b1-3)]GalNAc
# Summary of the method: as §1
# [13] = target: GlcNAc(b1-3)Gal(b1-4)GlcNAc(b1-6)[Gal(b1-3)]GalNAc
# Summary of the method: as §1
# [14] = target: GlcNAc(b1-3)Gal(b1-4)GlcNAc(b1-6)[GlcNAc(b1-3)Gal(b1-3)]GalNAc
# Summary of the method: as §1
# [15] = target: GlcNAc(b1-3)Gal(b1-4)GlcNAc(b1-6)[GlcNAc(b1-3)]Gal(b1-4)GlcNAc
# Summary of the method: as §1
# GlcNAc(b1-3)GalNAc = target: GlcNAc(b1-3)GalNAc
# Summary of the method: as §1
# GlcNAc(b1-3)Man = target: GlcNAc(b1-3)Man
# Summary of the method: as §1
# [16] = target: GlcNAc(b1-3)[GlcNAc(b1-4)][GlcNAc(b1-6)]GlcNAc
# Summary of the method: as §1
# [17] = target: GlcNAc(b1-3)[GlcNAc(b1-6)]Gal(b1-4)GlcNAc
# Summary of the method: as §1
# [18] = target: GlcNAc(b1-3)[GlcNAc(b1-6)]GalNAc
# Summary of the method: as §1
# [19] = target: GlcNAc(b1-3)[GlcNAc(b1-6)]GlcNAc
# Summary of the method: as §1
# [20] = target: GlcNAc(b1-4)Gal(b1-4)GlcNAc
# Summary of the method: as §1
# GlcNAc(b1-4)GlcNAc = target: GlcNAc(b1-4)GlcNAc
# Summary of the method: as §1
# [21] = target: GlcNAc(b1-4)GlcNAc(b1-4)GlcNAc
# Summary of the method: as §1
# [22] = target: GlcNAc(b1-4)GlcNAc(b1-4)GlcNAc(b1-4)GlcNAc(b1-4)GlcNAc
# Summary of the method: as §1
# [23] = target: GlcNAc(b1-4)GlcNAc(b1-4)GlcNAc(b1-4)GlcNAc(b1-4)GlcNAc(b1-4)GlcNAc
# Summary of the method: as §1
# [24] = target: GlcNAc(b1-4)[GlcNAc(b1-6)]GalNAc
# Summary of the method: as §1
# [25] = target: GlcNAc(b1-6)Gal(b1-4)GlcNAc
# Summary of the method: as §1
# GlcNAc(b1-6)GalNAc = target: GlcNAc(b1-6)GalNAc
# Summary of the method: as §1
# GlcNAc3Prop(b1-4)GlcNAc = target: GlcNAc3Prop(b1-4)GlcNAc
# Summary of the method: as §1
# [26] = target: GlcNAc6S(b1-3)Gal(b1-4)GlcNAc
# Summary of the method: as §1
# Kdn(a2-3)Gal(b1-3)GalNAc = target: Kdn(a2-3)Gal(b1-3)GalNAc
# Summary of the method: as §1
# Kdn(a2-3)Gal(b1-3)GlcNAc = target: Kdn(a2-3)Gal(b1-3)GlcNAc
# Summary of the method: as §1
# Kdn(a2-3)Gal(b1-4)Glc = target: Kdn(a2-3)Gal(b1-4)Glc
# Summary of the method: as §1
# Kdn(a2-3)Gal(b1-4)GlcNAc = target: Kdn(a2-3)Gal(b1-4)GlcNAc
# Summary of the method: as §1
# [27] = target: Kdn(a2-3)Gal(b1-4)[Fuc(a1-3)]GlcNAc
# Summary of the method: as §1
# Kdn(a2-6)Gal(b1-4)GlcNAc = target: Kdn(a2-6)Gal(b1-4)GlcNAc
# Summary of the method: as §1
# [28] = target: Man(a1-2)Man(a1-2)Man(a1-3)Man
# Summary of the method: as §1
# [29] = target: Man(a1-2)Man(a1-2)Man(a1-3)[Man(a1-2)Man(a1-3)[Man(a1-2)Man(a1-6)]Man(a1-6)]Man(b1-4)GlcNAc(b1-4)GlcNAc
# Summary of the method: as §1
# [30] = target: Man(a1-2)Man(a1-2)Man(a1-3)[Man(a1-2)Man(a1-6)[Man(a1-3)]Man(a1-6)]Man(b1-4)GlcNAc(b1-4)GlcNAc
# Summary of the method: as §1
# [31] = target: Man(a1-2)Man(a1-2)Man(a1-6)[Man(a1-3)]Man
# Summary of the method: as §1
# Man(a1-2)Man(a1-3)Man = target: Man(a1-2)Man(a1-3)Man
# Summary of the method: as §1
# [32] = target: Man(a1-2)Man(a1-3)[Man(a1-2)Man(a1-6)]Man
# Summary of the method: as §1
# [33] = target: Man(a1-2)Man(a1-3)[Man(a1-2)Man(a1-6)]Man(a1-6)[Man(a1-2)Man(a1-2)Man(a1-3)]Man
# Summary of the method: as §1
# [34] = target: Man(a1-2)Man(a1-3)[Man(a1-2)Man(a1-6)]Man(a1-6)[Man(a1-2)Man(a1-2)Man(a1-3)]Man(b1-4)GlcNAc(b1-4)GlcNAc
# Summary of the method: as §1
binder,measurement,setting,value
"Nictaba (Nicotiana tabacum), Q94EW1 (protein) MQGQWIAARDLSITWVDNPQYWTWKTVDPNIEVAELRRVAWLDIYGKIETKNLIRKTSYAVYLVFKLTDNPRELERATASLRFVNEVAEGAGIEGTTVFISKKKKLPGELGRFPHLRSDGWLEIKLGEFFNNLGEDGEVEMRLMEINDKTWKSGIIVKGFDIRPN",glycan array binding signal (z-score),[1],1.39
same,glycan array binding signal (z-score),[2],2.94
same,glycan array binding signal (z-score),[3],0.295
same,glycan array binding signal (z-score),[4],2.71
same,glycan array binding signal (z-score),[5],2.59
same,glycan array binding signal (z-score),[6],0.017
same,glycan array binding signal (z-score),[7],1.79
same,glycan array binding signal (z-score),[8],3.52
same,glycan array binding signal (z-score),[9],0.068
same,glycan array binding signal (z-score),[10],-0.388
same,glycan array binding signal (z-score),[11],-0.389
same,glycan array binding signal (z-score),[12],-0.387
same,glycan array binding signal (z-score),[13],-0.389
same,glycan array binding signal (z-score),[14],-0.387
same,glycan array binding signal (z-score),[15],-0.379
same,glycan array binding signal (z-score),GlcNAc(b1-3)GalNAc,-0.226
same,glycan array binding signal (z-score),GlcNAc(b1-3)Man,-0.291
same,glycan array binding signal (z-score),[16],-0.316
same,glycan array binding signal (z-score),[17],-0.269
same,glycan array binding signal (z-score),[18],-0.25
same,glycan array binding signal (z-score),[19],-0.323
same,glycan array binding signal (z-score),[20],-0.247
same,glycan array binding signal (z-score),GlcNAc(b1-4)GlcNAc,-0.293
same,glycan array binding signal (z-score),[21],2.26
same,glycan array binding signal (z-score),[22],2.98
same,glycan array binding signal (z-score),[23],2.81
same,glycan array binding signal (z-score),[24],-0.288
same,glycan array binding signal (z-score),[25],-0.286
same,glycan array binding signal (z-score),GlcNAc(b1-6)GalNAc,-0.277
same,glycan array binding signal (z-score),GlcNAc3Prop(b1-4)GlcNAc,-0.227
same,glycan array binding signal (z-score),[26],-0.297
same,glycan array binding signal (z-score),Kdn(a2-3)Gal(b1-3)GalNAc,-0.293
same,glycan array binding signal (z-score),Kdn(a2-3)Gal(b1-3)GlcNAc,-0.283
same,glycan array binding signal (z-score),Kdn(a2-3)Gal(b1-4)Glc,-0.244
same,glycan array binding signal (z-score),Kdn(a2-3)Gal(b1-4)GlcNAc,-0.13
same,glycan array binding signal (z-score),[27],-0.283
same,glycan array binding signal (z-score),Kdn(a2-6)Gal(b1-4)GlcNAc,-0.261
same,glycan array binding signal (z-score),[28],-0.29
same,glycan array binding signal (z-score),[29],3.93
same,glycan array binding signal (z-score),[30],4
same,glycan array binding signal (z-score),[31],-0.323
same,glycan array binding signal (z-score),Man(a1-2)Man(a1-3)Man,-0.308
same,glycan array binding signal (z-score),[32],-0.268
same,glycan array binding signal (z-score),[33],-0.275
same,glycan array binding signal (z-score),[34],2.14
